The source of these data is the supplement of paper PMC9135407.

The subject of this test is primary human hepatic stellate cells (donor 1). Briefly: scaled lipid accumulation score (0 = DMSO-like, 1 = nortriptyline-like); higher = stronger HSC inactivation (lipid re-accumulation), active = hit call of the paper. Particulars: 48 h.
Where [1] appears, read: library stock concentration: 10 mM.
Where [2] appears, read: library stock concentration: 3.33 mM.
Where [3] appears, read: library stock concentration: 1 mM.
[4] abbreviates: library stock concentration: 80 uM.
[5] abbreviates: library stock concentration: 400 uM.
[6] abbreviates: library stock concentration: 2 mM.
Where [7] appears, read: library stock concentration: 4.5 mM.

Values joined by “and” are separate entries in the source; they are usually repeats but may differ in a detail not shown here. Equal entries are not always repeated. Structures can show the parent of a compound that is named as a salt. In all, about 5,800 compounds went through this assay and about 620 (11%) showed activity.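 How the source made its calls: active = score above a cut-off or among the top three wells of a plate; in these data no inactive exceeds 0.85.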 This is a selection; strong and weak results do not stand in their true shares.

Consider `NC(=O)N1c2ccccc2C=Cc2ccccc21`, for which the “scaled lipid accumulation score” value under setting [1] was inactive: ≤ 0.
As to `NC(=O)N1c2ccccc2C=Cc2ccccc21` [Carbamazepine], the “scaled lipid accumulation score” value is inactive: ≤ 0. For the same compound, the “scaled lipid accumulation score” value under setting [2] is inactive: 0.025. Besides, the “scaled lipid accumulation score” value under setting [1] is inactive: ≤ 0 and inactive: 0.28.
Turning to `O=c1cc(-c2ccc(O)cc2)oc2cc(O)cc(O)c12` [Apigenin], the “scaled lipid accumulation score” value was inactive: ≤ 0. The “scaled lipid accumulation score” value under setting [2] was inactive: 0.01. The “scaled lipid accumulation score” value under setting [1] is inactive: ≤ 0 and inactive: ≤ -0.006 and inactive: ≤ -0.008.
Take `CO[C@H]1/C=C/O[C@@]2(C)Oc3c(C)c(O)c4c(c3C2=O)C2=NC3(CCN(CC(C)C)CC3)NC2=C(NC(=O)/C(C)=C\C=C\[C@H](C)[C@H](O)[C@@H](C)[C@@H](O)[C@@H](C)[C@H](OC(C)=O)[C@@H]1C)C4=O`: the “scaled lipid accumulation score” value under setting [1] is inactive: ≤ 0.
With `CO[C@H]1/C=C/O[C@@]2(C)Oc3c(C)c(O)c4c(c3C2=O)C2=NC3(CCN(CC(C)C)CC3)NC2=C(NC(=O)/C(C)=C\C=C\[C@H](C)[C@H](O)[C@@H](C)[C@@H](O)[C@@H](C)[C@H](OC(C)=O)[C@@H]1C)C4=O` [Rifabutin], the “scaled lipid accumulation score” value was inactive: ≤ 0. Besides, the “scaled lipid accumulation score” value under setting [1] is inactive: ≤ 0.
`C[C@H](NC(=O)c1sccc1OCc1ccc(Cl)cc1)c1ccccc1`: the “scaled lipid accumulation score” value under setting [1] was inactive: ≤ 0.
In the case of `CCCCC[C@H](O)/C=C/[C@@H]1[C@H](C/C=C\CCCC(=O)O)[C@@H](O)C[C@H]1O` [8-iso Prostaglandin F2.alpha.], the “scaled lipid accumulation score” value under setting [3] is inactive: ≤ 0.
The same measure, in the same setting: next, `CCCCCCCCCCCCCCCC(=O)NC(C)C` [Palmitoyl N-Isopropylamide]: inactive: ≤ 0.
Regarding `CC(Cc1ccccc1)Nc1ncnc2c1ncn2C1OC(CO)C(O)C1O` (stereo not drawn) [R(-)-N6-(2-Phenylisopropyl)adenosine], the “scaled lipid accumulation score” value under setting [1] is inactive: ≤ -0.055.
Still for that read-out and setting: next, `c1cnc2cc3c(cc2n1)[C@@H]1CNC[C@H]3C1` [Varenicline tartrate]: inactive: ≤ 0.
As for `C[C@@H](N)[C@H]1CC[C@H](C(=O)Nc2ccncc2)CC1`, the “scaled lipid accumulation score” value runs as follows: under setting [4], inactive: ≤ -0.009; under setting [5], inactive: ≤ -0.009; under setting [6], inactive: ≤ -0.001; under setting [2], inactive: 0.053; under setting [1], inactive: ≤ 0 and inactive: 0.719 and inactive: 0.14; (library stock concentration: 20.2 mM) inactive: ≤ -0.012.
Turning to `CN1CCC[C@@H]1CCO[C@](C)(c1ccccc1)c1ccc(Cl)cc1` [Clemastine fumarate], the “scaled lipid accumulation score” value (library stock concentration: 5.8 mM) is active: 0.885.
For `NC[C@H]1O[C@@H](n2cnc3c(N)ncnc32)[C@H](O)[C@@H]1O` [5'-Amino-5'-deoxyadenosine p-toluenesulfonate salt], under setting [1], the “scaled lipid accumulation score” value was inactive: ≤ 0.
For the compound `O=C(Cn1ccnc1[N+](=O)[O-])NCCO` [Etanidazole], the “scaled lipid accumulation score” value is inactive: ≤ 0. The “scaled lipid accumulation score” value (library stock concentration: 9.3 mM) was inactive: ≤ 0.
Consider `CCc1cc(C(C)=O)c(O)cc1OCCCCCC(C)(C)c1nn[nH]n1`, for which the “scaled lipid accumulation score” value is inactive: 0.055 under setting [3] and inactive: ≤ -0.001 under setting [1].
Regarding `CC(=O)OCC(COC(C)=O)OC(C)=O` [Triacetin], the “scaled lipid accumulation score” value runs as follows: (library stock concentration: 9.2 mM) inactive: ≤ 0; under setting [1], inactive: ≤ 0.
In the case of `CC/C=C\C/C=C\C/C=C\CCCCCCCC(=O)NCCO` [.alpha.-Linolenoyl Ethanolamide], the “scaled lipid accumulation score” value under setting [3] was inactive: 0.006.
Regarding `Cc1cc(C)c(N(Cc2ccccc2)S(=O)(=O)c2ccc(OCCNC(=O)c3cc4ccccc4o3)cc2)c(C(=O)NO)c1`, the “scaled lipid accumulation score” value under setting [1] is inactive: ≤ -0.001.
As to `CN1CC[C@H](c2c(O)cc(O)c3c(=O)cc(-c4ccccc4Cl)oc23)[C@H](O)C1` [Flavopiridol], the “scaled lipid accumulation score” value under setting [4] was inactive: 0.406, the “scaled lipid accumulation score” value under setting [5] was inactive: 0.315, the “scaled lipid accumulation score” value under setting [6] is inactive: 0.225 and the “scaled lipid accumulation score” value under setting [1] is inactive: 0.265.
Regarding `CN1CC[C@H](c2c(O)cc(O)c3c(=O)cc(-c4ccccc4Cl)oc23)[C@H](O)C1` [Flavopiridol HCl], the “scaled lipid accumulation score” value is inactive: 0.286 under setting [2] and inactive: 0.132 under setting [1].
For `CN1CC[C@H](c2c(O)cc(O)c3c(=O)cc(-c4ccccc4Cl)oc23)[C@H](O)C1`, the “scaled lipid accumulation score” value was inactive: 0.4 under setting [5], inactive: 0.203 under setting [6] and inactive: ≤ -0.005 under setting [1].
As for `CC(N)=O` [Acetamide], the “scaled lipid accumulation score” value under setting [1] is inactive: ≤ 0.
Take `COc1ccc(-c2cc(=O)c3c(O)cc(O)cc3o2)cc1O` [Diosmetin]: the “scaled lipid accumulation score” value runs as follows: under setting [2], inactive: 0.016; under setting [1], inactive: ≤ 0.
Consider `CCCCCCCCCCCCCCCCOCC(CO)OC(C)=O` (configuration not stated) [1-Hexadecyl-2-O-acetyl-glycerol], for which, under setting [3], the “scaled lipid accumulation score” value was inactive: 0.035.
As to `Nc1nc(Cl)nc2c1ncn2[C@@H]1O[C@H](CO)[C@@H](O)[C@@H]1F` [Clofarabine], the “scaled lipid accumulation score” value is inactive: ≤ 0 under setting [2]; inactive: ≤ 0 (library stock concentration: 6.6 mM); inactive: ≤ 0 and inactive: 0.031 under setting [1].
`O=C1CN2Cc3c(ccc(Cl)c3Cl)N=C2N1` [Anagrelide HCl]: the “scaled lipid accumulation score” value runs as follows: under setting [2], inactive: 0.074; under setting [1], inactive: 0.58.
Take `O=C1CN2Cc3c(ccc(Cl)c3Cl)N=C2N1` [Anagrelide]: the “scaled lipid accumulation score” value (library stock concentration: 7.8 mM) is inactive: 0.141.
Turning to `O=C1CN2Cc3c(ccc(Cl)c3Cl)N=C2N1` [Anagrelide hydrochloride], the “scaled lipid accumulation score” value (library stock concentration: 6.8 mM) is inactive: ≤ 0.
In the case of `O=C1CN2Cc3c(ccc(Cl)c3Cl)N=C2N1`, under setting [1], the “scaled lipid accumulation score” value is inactive: ≤ 0.
On to `C#CCCCCCCCCCCCC(O)CC(O)CO` (configuration not stated) [Avocadyne], for which, under setting [1], the “scaled lipid accumulation score” value was inactive: 0.005.
`CCCCCC(O)C=CC1C(O)CC(=O)C1CCCCCCC(=O)O` (configuration not stated) [8-iso Prostaglandin E1]: the “scaled lipid accumulation score” value under setting [3] is inactive: ≤ 0.
Regarding `CCCCCC(O)C=CC1C(O)CC(=O)C1CCCCCCC(=O)O` [15(R)-Prostaglandin E1], the “scaled lipid accumulation score” value under setting [3] is inactive: ≤ 0.
Consider `CCCCC[C@H](O)/C=C/[C@@H]1[C@@H](C/C=C\CCCC(=O)O)[C@@H](O)C[C@@H]1O` [11.beta.-Prostaglandin F2.alpha.], for which the “scaled lipid accumulation score” value under setting [3] was inactive: ≤ 0.
For the compound `CCCCC[C@H](O)/C=C/[C@@H]1[C@@H](C/C=C\CCCC(=O)O)[C@@H](O)C[C@@H]1O` [9a,11b-Prostaglandin F2], under setting [3], the “scaled lipid accumulation score” value is inactive: ≤ -0.021.
With `CC(C)NCC(O)COc1ccc(COCCOC(C)C)cc1` (configuration not stated), the “scaled lipid accumulation score” value under setting [1] was inactive: ≤ 0.
With `CC(C)NCC(O)COc1ccc(COCCOC(C)C)cc1` (configuration not stated) [Bisoprolol fumarate], the “scaled lipid accumulation score” value was inactive: ≤ 0. Also, the “scaled lipid accumulation score” value under setting [2] was inactive: 0.026. Also, the “scaled lipid accumulation score” value under setting [7] is inactive: ≤ 0. Besides, the “scaled lipid accumulation score” value under setting [1] was inactive: ≤ 0.
Turning to `CC(C)NCC(O)COc1ccc(COCCOC(C)C)cc1` (configuration not stated) [Bisoprolol hemifumarate salt], the “scaled lipid accumulation score” value under setting [1] was inactive: 0.146.
For `CC(C)NCC(O)COc1ccc(COCCOC(C)C)cc1` (configuration not stated) [(?)-Bisoprolol hemifumarate], the “scaled lipid accumulation score” value under setting [1] is inactive: ≤ 0.
For the compound `Nc1nc(=S)c2ncn([C@@H]3O[C@H](CO)[C@@H](O)[C@H]3O)c2[nH]1` [Thioguanosine], the “scaled lipid accumulation score” value was inactive: 0.076.
`CCCCC/C=C\CCCCCCCCCCCCC(=O)O` [14(Z)-Eicosenoic Acid]: the “scaled lipid accumulation score” value under setting [3] is inactive: ≤ 0.
As to `CC[C@@H]([C@H](C)O)n1ncn(-c2ccc(N3CCN(c4ccc(OC[C@@H]5CO[C@@](Cn6cncn6)(c6ccc(F)cc6F)C5)cc4)CC3)cc2)c1=O` [Posaconazole], under setting [1], the “scaled lipid accumulation score” value was active: 0.869.
In the case of `CC(C)n1cnc2c(NCCc3ccc(O)cc3)nc(-c3csc4ccccc34)nc21` [StemRegenin 1 (SR1)], the “scaled lipid accumulation score” value under setting [1] is active: 0.919.
The same measure, in the same setting: the figure for `Nc1nc(F)nc2c1ncn2[C@@H]1O[C@H](CO)[C@@H](O)[C@@H]1O` is inactive: 0.743; for `Nc1nc(F)nc2c1ncn2[C@@H]1O[C@H](CO)[C@@H](O)[C@@H]1O` [Fludarabine] it is inactive: 0.781.
`N#CC(Cc1ccc(O)cc1)c1ccc(O)cc1` (configuration not stated) [2,3-bis (4-Hydroxyphenyl) Propionitrile]: the “scaled lipid accumulation score” value under setting [3] is inactive: 0.019.
For `CC(=O)c1cnc2ccc(-c3cc(Cl)c(O)c(Cl)c3)nc2c1N[C@H]1CC[C@H](CN(C)C)CC1`, the “scaled lipid accumulation score” value was inactive: 0.258 under setting [4], inactive: 0.847 under setting [5] and inactive: 0.765 under setting [6].
Consider `CC[C@H]1OC(=O)[C@H](C)[C@@H](O[C@H]2C[C@@](C)(OC)[C@@H](O)[C@H](C)O2)[C@H](C)[C@@H](O[C@@H]2O[C@H](C)C[C@H](N(C)C)[C@H]2O)[C@](C)(O)C[C@@H](C)/C(=N\OCOCCOC)[C@H](C)[C@@H](O)[C@]1(C)O` [Roxithromycin], for which the “scaled lipid accumulation score” value was inactive: ≤ 0. Also, the “scaled lipid accumulation score” value under setting [2] was inactive: ≤ 0. Further, the “scaled lipid accumulation score” value under setting [1] is inactive: ≤ 0 and inactive: ≤ -0.027.
With `O=C([O-])[C@H]1/C(=C/CO)O[C@@H]2CC(=O)N21.[Li+]` [Clavulanate lithium], the “scaled lipid accumulation score” value (library stock concentration: 9.7 mM) was inactive: ≤ 0.
Take `OC(c1ccccc1)C1CCN(CCc2ccccc2)CC1` (configuration not stated): under setting [1], the “scaled lipid accumulation score” value is inactive: 0.129.
Turning to `Nc1nc(=O)c2nc(CNc3ccc(C(=O)N[C@@H](CCC(=O)O)C(=O)O)cc3)cnc2[nH]1` [Folic acid], the “scaled lipid accumulation score” value was inactive: 0.055. Also, under setting [7], the “scaled lipid accumulation score” value was inactive: ≤ 0. Also, the “scaled lipid accumulation score” value under setting [1] is inactive: ≤ 0.
In the case of `CC(=O)N[C@@H](CC(C)C)C(=O)O` [Acetyl-l-leucine], the “scaled lipid accumulation score” value under setting [1] was inactive: ≤ 0.
As to `CC(=O)N[C@@H](CC(C)C)C(=O)O` [N-Acetyl-L-leucine], the “scaled lipid accumulation score” value was inactive: ≤ 0.
Turning to `CNC(=O)[C@@H](Cc1ccccc1)N(C)C(=O)[C@@H](Cc1ccc2ccccc2c1)N(C)C(=O)/C=C/CC(C)(C)N.CNC(=O)[C@@H](Cc1ccccc1)N(C)C(=O)[C@@H](Cc1ccc2ccccc2c1)N(C)C(=O)/C=C/CC(C)(C)N.O=C(O)/C=C/C(=O)O` [Tabimorelin], the “scaled lipid accumulation score” value under setting [1] was active: 1.3.
Take `O=C(NCCS(=O)(=O)c1ccc(C(F)(F)F)cn1)c1ccc(Cl)cc1`: the “scaled lipid accumulation score” value is, setting by setting: under setting [2], inactive: ≤ -0.009; under setting [1], inactive: ≤ 0.
`CC(C)CC(=O)Nc1n[nH]c2c1CN(C(=O)C1CCN(C)CC1)C2(C)C`: the “scaled lipid accumulation score” value reads like this: under setting [4], inactive: ≤ 0; under setting [5], inactive: 0.21; under setting [6], inactive: 0.029; under setting [2], inactive: 0.199; under setting [1], inactive: ≤ 0 and inactive: 0.015.
